# Laboratory results taken from PubChem BioAssay AID493208 (National Center for Advancing Translational Sciences (NCATS), 2011).
# Among all 44,000 compounds or so, about 340 (0.77%) were called active. Another 5% or so got no clear call; they are omitted. The call rests on the fitted dose curve; in most records, active means well fitted inhibition curve with a large enough effect; inconclusive means small, poorly fitted or top-dose-only effect; inactive means flat fitted curve, though single readings scatter. The list shows a part of the results.
# Test: Acumen qHTS Assay for Inhibitors of the mTORC1 Signaling Pathway in MEF (Tsc2-/-, p53-/-) Cells: Sytravon; further: nearly all actives have a fitted effect of over 50% in size;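 on activity change, negative = inhibition: plate controls were DMSO for no effect and rapamycin for full effect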
# Conditions: phospho-rpS6 immunofluorescence/PI, 24 h; series mostly up to 38.3 µM; activity change, negative = inhibition: at the top concentration
# Method in brief: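 Tsc2-/-, p53-/- MEFs (empty-vector stable line) in DMEM + 10% FBS were treated with compounds 24 h at 37 degree Celsius, fixed, and immunostained for phospho-rpS6 (Alexa-488) with propidium iodide counterstain. Laser-scanning cytometry gave % positive cells, normalized against 7.5 nM rapamycin and DMSO.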
# Potency means the concentration at half of the fitted maximal effect.
SMILES,"activity change, negative = inhibition",Potency
Cc1ccccc1CNC(=O)c1cnc2sc(N3CCC(C)CC3)nn2c1=O,inactive: 9.67%,–
CN(C(=O)CSc1nnc(NC(=O)Nc2ccccc2)s1)c1ccccc1,inactive: -0.762%,–
Cc1cc(C)c(NC(=O)C2CCN(c3nc4ccccc4n4cccc34)CC2)c(C)c1,–,active: 14.7 µM
Brc1cccc(-c2nnn3c2nc(NCc2ccc4c(c2)OCO4)c2ccccc23)c1,inactive: -22.7%,–
O=C(NCC(c1cccnc1)N1CCc2ccccc21)c1cccc(Br)c1 (stereo not given),inactive: -10.5%,–
COc1ccc(-n2ncc(C(=O)NCc3ccco3)c2C2CCN(C(=O)OC(C)(C)C)CC2)cc1,inactive: -0.86%,–
CC(C)NC(=O)C1CCC(Cn2c(=O)c3sccc3n(Cc3ccc(F)cc3)c2=O)CC1 (stereo not given),inactive: -13.3%,–
Cc1ccc(NC(=O)/C(C#N)=C/c2ccc(-c3ccc(Cl)c(C(=O)O)c3)o2)cc1C,inactive: 4.47%,–
O=C1CS(=O)(=O)C2(C(=O)N(Cc3ccccc3Cl)c3ccccc32)N1c1ccc(F)cc1 (stereo not given),inactive: 3.77%,–
CC(C)(C)c1ccc(/C=C/C(=O)Nc2ccc(S(N)(=O)=O)cc2)cc1,inactive: -18.5%,–
CCCNC(=O)Cn1c(=O)n(CC2CCC(C(=O)NC)CC2)c(=O)c2sccc21 (stereo not given),inactive: -3.17%,–
CCN(CC)S(=O)(=O)c1ccc2c(c1)N(CC(=O)Nc1ccccc1F)C(=O)C1CCCN21 (stereo not given),inactive: 0.312%,–
COc1cccc(NC(=O)C2CCCN(S(=O)(=O)c3cn(C(C)C)cn3)C2)c1 (stereo not given),inactive: -7.07%,–
CCOc1ccc(CCNC(=O)c2cc3cccc4c3n2CCS4)cc1,inactive: -8.12%,–
CCCC(=O)N(c1ccc2oc(C)c(C(C)=O)c2c1)S(=O)(=O)c1ccc(CC)cc1,inactive: -13.1%,–
COc1ccc(N2CCN(c3ncnc4c3cnn4C)CC2)cc1,inactive: 7.84%,–
Cc1cccc(C(=O)Nc2ccc(S(=O)(=O)N3CCC(c4nc5ccccc5s4)CC3)cc2)c1,inactive: 1.08%,–
COCCCNC(=O)c1cc2cc(S(=O)(=O)N3CCCCC3)ccc2n1C,inactive: -1.21%,–
CCC(C)(C)NC(=O)C1CCN(S(=O)(=O)c2ccc3c(c2)CCCN3C(C)=O)CC1,inactive: -11.4%,–
Cc1cc(C)c(NC(=O)CSc2ncc3c(n2)-c2cc(Cl)ccc2N(C)S3(=O)=O)c(C)c1,inactive: -24.4%,–
COc1cc(CN2CCc3nc(N4CCN(c5ccccn5)CC4)ncc3C2)cc(OC)c1OC,inactive: 0%,–
O=C(Nc1ccc(Cl)cc1C(F)(F)F)c1cc(S(=O)(=O)N2CCOCC2)ccc1F,inactive: 2.93%,–
CCOc1ccc(S(=O)(=O)n2nc(C)c(S(=O)(=O)N3CCCCC3)c2C)cc1,inactive: -11.5%,–
CC(C)(C)OC(=O)N1CCC(c2c(C(=O)NCc3ccco3)cnn2-c2ccccc2Cl)CC1,inactive: 0.198%,–

SMILES,"activity change, negative = inhibition",Potency
Cc1nn(CCCC(=O)NCc2ccccc2)c(=O)c2cc3sccc3n12,inactive: -2.51%,–
CC(=O)c1cc(-c2ccccc2)n(CCC(=O)NC(C)c2ccccc2)c1C (stereo not given),inactive: -0.634%,–
COC(=O)c1ccccc1NS(=O)(=O)c1ccc2c(c1)CCCN2C(C)=O,inactive: 4.69%,–
CCCC(=O)n1nc(-c2cccnc2)nc1NCc1ccc(OC)cc1,inactive: 7.24%,–
COc1ccc(C(=O)Nc2cc3c(cc2N2CCCC2)n(C)c(=O)c(=O)n3C)cc1OC,inactive: -1.42%,–
CCOc1cc(C(=O)Nc2ccc(-c3nc4ccccc4s3)cc2Cl)cc(OCC)c1OCC,inactive: -8.71%,–
Cc1cccc(C)c1NC(=O)Cn1c(=O)n(Cc2ccc3c(c2)OCO3)c(=O)c2oc3ccccc3c21,inactive: 0.547%,–
Fc1ccc(-n2ncc3c(NCCC4=CCCCC4)ncnc32)cc1,inactive: 8.93%,–
COc1ccc(C(=O)Nc2cc(S(=O)(=O)c3ccc(Cl)cc3)c(O)c(C)c2C)cc1,inactive: -3.66%,–
O=C(Nc1ccc(Br)cc1)C(Cc1ccccc1)NS(=O)(=O)c1cccc2nsnc12 (stereo not given),inactive: -0.0459%,–
COc1ccccc1NC(=O)Cn1nc(-c2ccc(C)cc2)c2c(c1=O)CCCC2,inactive: -4.8%,–
Cc1ccc(CNC(=O)c2c(C)oc3nc(C)nc(N4CCOCC4)c23)cc1,inactive: 3.18%,–
CCc1ccc(-n2nc3cc(C)c(NC(=O)c4cc(OC)cc(OC)c4)cc3n2)cc1,inactive: -3.9%,–
CC(C)(C)c1ccc(C(=O)NCC(c2cccs2)S(=O)(=O)c2cccs2)cc1 (stereo not given),inactive: 1.28%,–
Cc1cccc(CSCc2ccc(C(=O)NCCc3ccccc3)o2)c1,inactive: 2.56%,–
COc1ccccc1CCNC(=O)Cc1c(C)c2cc3c(C)coc3cc2oc1=O,inactive: 4.79%,–
O=C(c1cc2ccccc2oc1=O)N1CCN(c2ccc(F)cc2)CC1,inactive: 3.45%,–
Cc1cc(C)c2c(CC(=O)Nc3ccc(S(=O)(=O)N4CCCCC4)cc3)coc2c1,inactive: -4.02%,–
CCOc1cc(-c2ccc(OC(=O)c3ccc(C)cc3)c(OC)c2)cc(=O)c2c(C)oc(C)c12,inactive: -1.65%,–
Nc1c(-c2nc(-c3ccccc3)no2)nnn1CC(=O)Nc1cccc(F)c1,inactive: -10.3%,–
CCN(CC)CCN(C(=O)c1ccco1)c1nc2cc(C)cc(C)c2s1,inactive: -0.665%,–
CC(=O)c1ccc(NC(=O)CN(C)S(=O)(=O)c2cc3c(cc2Cl)NC(=O)CO3)cc1,inactive: -1.21%,–
N#Cc1c(-n2ncnc2-c2ccccc2C(F)(F)F)sc2c1CCCCC2,inactive: 1.87%,–
Cc1ccc(NCc2cccn2-c2nnc(N3CCC(C(=O)NCCC(C)C)CC3)s2)cc1,inactive: -7.47%,–

SMILES,"activity change, negative = inhibition",Potency
CCOC(=O)c1ccc(Nc2c(-c3cccc(O)c3)nc3nc[nH]n23)cc1,inactive: -2.49%,–
COc1cc(NC(=O)CNS(=O)(=O)c2cccs2)cc(OC)c1OC,inactive: 3.95%,–
CC1CCC(NC(=O)c2ccc(CS(=O)(=O)c3cccc(C(F)(F)F)c3)o2)CC1 (stereo not given),inactive: -6.37%,–
O=C(NCc1cccs1)c1ccc(CSc2nc3ccncc3n2Cc2ccccc2)cc1,inactive: -7.19%,–
CCOc1ccc(S(=O)(=O)NCCc2csc3nc(-c4ccc(F)cc4)nn23)cc1,inactive: -18.7%,–
COc1cccc(C2=NS(=O)(=O)N(C)C(C(=O)Nc3ccccc3SC)=C2)c1,inactive: -0.603%,–
Cc1ccc(C)c(Cn2c(=O)n(Cc3ccccc3)c(=O)c3c2c2cc(C)ccc2n3C)c1,inactive: -0.74%,–
CCOC(=O)c1ccc(NC(=O)Cn2c(=O)cc(C(F)(F)F)c3c(C)nn(C)c32)cc1,inactive: 5.77%,–
Cc1ccc(C(=O)Nc2ccc(S(=O)(=O)Nc3onc(C)c3C)cc2)cc1,inactive: -2.29%,–
Cc1ccc(Cl)cc1N1CCN(CCCNC(=O)C2COc3ccccc3C2)CC1 (stereo not given),inactive: -7.06%,–
Fc1ccc(CSc2nc(NCc3ccccc3)c3ccccc3n2)cc1,inactive: -18.5%,–
COc1ccc(CNC(=O)Cn2c(=O)cc(C)c3c(C)nn(-c4cccc(Cl)c4C)c32)cc1,inactive: 2.64%,–
COc1ccc(C(=O)NCCn2cc(SC(C)c3ccccc3)c3ccccc32)cc1OC (stereo not given),inactive: -0.161%,–
Cc1ccc(N(C)C(=O)CCS(=O)(=O)c2cc3c(cc2Cl)NC(=O)CO3)cc1,inactive: 4.39%,–
COc1cc(NC(=O)NCCN2CCN(c3ccccc3)CC2)cc(OC)c1OC,inactive: -0.412%,–
Cc1cc(C)c(S(=O)(=O)Nc2ccc(-c3ccc(N4CCCCCC4)nn3)cc2)cc1C,inactive: -0.126%,–
CCN(CC)c1ccc2cc(-c3nc(-c4ccccc4F)no3)c(=O)oc2c1,inactive: -7.99%,–
Cc1cccc(NC(=O)CSc2nc3c(sc4ccccc43)c(=O)n2CCCC(=O)NC2CCCC2)c1,inactive: -11.4%,–
Cc1cccc(C(=O)Nc2ccc(S(=O)(=O)N(Cc3ccccc3)c3ccccc3)cc2)c1,inactive: -5.63%,–
CCc1ccc(NC(=O)Nc2nnc(N(C)C3CCCCC3)s2)cc1,inactive: 2.22%,–
O=C(Nc1cccc(C(F)(F)F)c1)c1ccc2snnc2c1,inactive: 0.0529%,–
CC(=O)c1ccc(NC(=O)Cn2c(=O)nc(-c3ccccc3)c3cc(Cl)ccc32)cc1,inactive: 0%,–
CCC(C)NC(=O)CSc1nc2cc3c(cc2c(=O)n1Cc1ccc(C(=O)NCCc2ccc(OC)c(OC)c2)cc1)OCO3 (stereo not given),inactive: -1.38%,–
Cc1cccc(N2CCN(C(=O)C3CCN(c4ncnc5c4nc4n5CCCCC4)CC3)CC2)c1C,inactive: -6.16%,–

SMILES,"activity change, negative = inhibition",Potency
CCOC(=O)C1CCCN(c2ncnc3c2nnn3C)C1 (stereo not given),inactive: 0.0183%,–
COc1cccc(NC(=O)c2oc3ccccc3c2NC(=O)c2cc3ccccc3o2)c1,inactive: -2.22%,–
Cc1nc2ccn(Cc3cccnc3)c(=O)c2cc1C(=O)Nc1ccc(F)cc1F,inactive: -12.1%,–
COCCCNC(=O)c1ccc(C)c(-n2c(C)nc3cccnc32)c1,inactive: -1.43%,–
COCCn1c(SCC(=O)c2c[nH]c3ccccc23)nc2cc(C(=O)NC(C)C)ccc2c1=O,inactive: 9.05%,–
O=S(=O)(Nc1ccc(F)cc1F)c1ccc(-n2cccn2)cc1,inactive: -0.0369%,–
CCOc1ccc(-c2nnc(SCC(=O)c3ccc(Br)cc3)n2-c2ccccc2)cc1,inactive: -12.6%,–
O=C(CN1C(=O)CCc2cc(S(=O)(=O)N3CCOCC3)ccc21)NCc1ccc(Cl)cc1,inactive: -4.76%,–
CCOc1ccc(CCNC(=O)c2cc3c(s2)-c2c(C)cccc2OC3)cc1,inactive: 0.502%,–
Cc1ccc(NC(=O)CSc2nnc(-c3ccc(Br)cc3)o2)c(C)c1,inactive: 1.98%,–
Cc1ccc(OCC(=O)Nc2ccc3nc(SCCOc4ccccc4)sc3c2)cc1,inactive: 0.11%,–
CCOC(=O)Cn1c(=O)oc2cc(S(=O)(=O)N3CCC(C(=O)OCC)CC3)ccc21,inactive: -1.74%,–
COc1ccc(NC(=O)Cn2nnc3sc4c(c3c2=O)CCCC4)cc1,inactive: -6.99%,–
Cc1ccc(NC(=O)CN2C(=O)COc3ccc(S(=O)(=O)Nc4ccccc4)cc32)c(C)c1,inactive: 1%,–
COc1ccc(CNC(=O)c2ccc3nc(C(C)C)oc3c2)cc1OC,inactive: 0%,–
Cc1cc(C)c(NC(=O)CSc2nc3ccncc3[nH]2)c(C)c1,inactive: -5.37%,–
Cc1ccc(C2=NC(c3ccccc3)=Nc3ccc(Cl)cc3N2)cc1,inactive: 0.485%,–
COC(=O)c1cc2oc3ccccc3c2n1Cc1c(C)cc(C)cc1C,inactive: -8.79%,–
CCc1ccc(NC(=O)CCc2nnc3n(C)c(=O)c4sccc4n23)cc1,inactive: 6.42%,–
COCCCNC(=O)CSc1nc(-c2ccc(OC)c(OC)c2)[nH]c1-c1ccc(F)cc1,inactive: -8%,–
Cc1cc(C)c2c(=O)cc(C(=O)NCc3ccc(S(N)(=O)=O)cc3)oc2c1,inactive: 7.1%,–
Cc1cc(C)cc(NC(=O)Cn2c(=O)n(Cc3ccco3)c(=O)c3oc4ccccc4c32)c1,inactive: -10.9%,–
COc1cc2ccccc2cc1C(=O)Nc1cccc(-c2nc3cc(C)ccc3o2)c1C,inactive: 9.15%,–
